Here are results for 167 variants from the RNAGym collection of RNA variant scans (doi:10.7554/elife.90254).

The source gives no read counts; variants with many changes may rest on few reads.

B1: LINE1-mini (parent)
chain: GGCAGAGCUCAACACAGCGUGGCAAAGUGGCUGUGGCUAGACUGCC

In the data set the parent is B1. The data set can be described thus: self-cleavage, relative activity (ratio to wild type); higher = more cleavage; in vitro, sequencing; the parent is a self-cleaving ribozyme.
For G17U U28G G40A, the self-cleavage stood at 0.06. Then U9G G21A G30A C45A, with 0.04. In the case of G2A A6U C8U C23U, the self-cleavage came to 0.38. Next, G7C C10A G19C: 0.04; A24C A26U C37G C42G G44A: 0.01; A6C G7A C23U: 0.07. Then A11C A41G G44C, with 0.02; and G2U A12U A14G C45G, with 0.01.

For the variant G7U C15A C31G, the self-cleavage came out at 0.12. Then C8G C18U G33A U43A, with 0.05. In the case of G1C G7U G17U G19A G30U G33A, the self-cleavage came out at 0.02. Then C8A A11G A25C, with 0.01; and A12U G21U U38A, with 0.1. Next, U9C C10G G21C: 0.02.

With C3A A4G C23U G29A G33U, the self-cleavage amounted to 0.26. Then A4C G17A A24U G30A, with 0.04; and G5A C10A A39U A41U, with 0.03; and A12U C23U U38G, with 0. C15A C31U G44U: the self-cleavage was 0.02. Then C8G C23U C42U, with 0.03; and U9G C10G A12G G17U A24G G29U, with 0.01. C3A U20G G40U G44U: the self-cleavage is 0.16. Then G7C G30C U32A G40U, with 0.04; and C10A C31A G36U, with 0; and G1U G2C A11U C13A A26C C46U, with 0.

With G29A G30U A39G C46G, the self-cleavage turned out to be 0.03.

With A11U G35C G44A, the self-cleavage came to 0.04. Next, C8U G19U C42A: 0.04; C31G G33C C37U: 0.05; A6U A16C G17U: 0.14. Then C8G C15G G21U C31A C37U U38G, with 0.07. Then G7U A14U C37U, with 0.05; and G7C C37G C42U, with 0.02; and C8A C10A A26U U32G, with 0.03. For the variant C10U C42U C45G, the self-cleavage came to 0.05. On to C15G A39G C42G, for which the self-cleavage turned out to be 0.03. Then C18U A25G A39C, with 0.24; and C8A G21U G30A C31G, with 0.09; and G1U G30C C31A G33C, with 0. On to G2U U9A C31U, for which the self-cleavage amounted to 0.09. Then C10A G30U U34A, with 0.05.

For the variant A6U G21U G30A A41U, the self-cleavage was determined as 0.23.

For the variant G21C C37A C45A, the self-cleavage worked out at 0.01.

G5U A6C A16C C23A G29U: the self-cleavage was determined as 0.04. Next, C18U C31U U32A: 0.12; A12C C15U A26U: 0.13; G29A U32A A41C: 0.1.

As to G5U C13A G19U A25G, the self-cleavage was 0.04. Then C8G G29A C37U G40A, with 0.04; and G5C A14U G40A, with 0.04; and G7U G33U G36C, with 0.03. On to G1C A6U C13A, for which the self-cleavage came to 0. As for C13U C15G G21A G35U G44C, the self-cleavage came out at 0.02. Then G2A C3G C15U G33U, with 0.32; and A6G G33A G35A, with 0.06; and G17A A25U U28C U32C G33U, with 0.1. Then G1C C13U G17C G21A G22A A25C, with 0.02; and C18A A39G C46G, with 0.07; and G2U G7C C15G G44U, with 0.06. For C10A G21U G36C, the self-cleavage is 0.01. Then G1U A11C G29U G30A, with 0.01; and G7C C15U G33U, with 0.06. Then C10U C13A G21C, with 0.03; and A4G G33U A39U, with 0.03; and G1C G22A A25G G27U C31A U32A, with 0.02.

In the case of C18G A25U G35C, the self-cleavage was found to be 0.06. Next, G1A G2A G5U: 0.95. For the variant C31G G33U U34A G44U, the self-cleavage was found to be 0.02. As for C3G U34C G36A, the self-cleavage was 0.09.

For the variant C8U A16G G44A, the self-cleavage was 0.1. Then A4G A6G A11C G19A, with 0. As for G17U U32C C46A, the self-cleavage came out at 0.06.

In the case of C23U A26C U43C, the self-cleavage came out at 0.03. Then C10U G22C C23A U28C G35A C37A, with 0; and G17C C18G U20A C23U G29A C31U, with 0.29; and G30C C37G U38A, with 0.06. In the case of C8U G27A A41G C42G G44C, the self-cleavage was determined as 0.1. Next, G2C G5C A39U: 0.01; U20A A24G A26G G29U C46A: 0.21; C15U A16U G22A G29C: 1.91. Turning to G7A A24U A26U G44C, the self-cleavage worked out at 0.21. For the variant G2A G21A A24C G27C G30U, the self-cleavage was determined as 0.39.

In the case of U9A A39C C46A, the self-cleavage was 0.08. With C10A G19A U34G, the self-cleavage was found to be 0.04. Consider A4U G21A G27A U28G G29C U43A, for which the self-cleavage came to 0.14. With G2A C8U C15U A26G U28G, the self-cleavage is 0.19. As to C18G U20C A26G, the self-cleavage stood at 0.02. Next, A11U G40C C45U: 0.02. Take C13A G29C G33A: the self-cleavage came to 0.05.

With A26G G30U C37A A39G, the self-cleavage is 0.01. With U9A A12U G22A G44A, the self-cleavage came out at 0.05. Turning to C10U G29C C31U U34G, the self-cleavage worked out at 0.2. Then G17A C18A G19C G36U G44C, with 0.02; and A4C A6C C8G, with 0.02. Then C18A G19C C23U U43G, with 0. Turning to G2A G7A C8A C13U C15G C18A, the self-cleavage was 0.35.

For G7A A16U U28A U32G, the self-cleavage is 0.12. Regarding C13A C18G G21U U28C C42U G44U, the self-cleavage was 0.03. Next, A6C C15G G19U G22U C45A: 0.02. Then C13G C31G C45G, with 0.04; and A16C C18U G21U A39C, with 0.04; and G5A C18U G35C U38C, with 0.04.

On to G5A G19A U28A C31G, for which the self-cleavage came out at 0. Next, C10A C13G A26U C31A: 0.05; A26C G35C G36U: 0.14; C8G G21U C46A: 0.13. Then G1A C8A C31G C46U, with 1.11. Then G1A A4G U9A G19U C23U A24G U43A, with 0.05; and C3A G5A G21C C23A C31G, with 0.09; and C3U C8A A16G G30U, with 2.57.

Turning to C8A C18A G21C G40U A41G, the self-cleavage is 0.09.

As for A11C A25C G27A G35U, the self-cleavage came out at 0.02.

As for C8U G19U G30C U38C C42A, the self-cleavage was 0.01. Then G21U G30A C31U, with 0.1; and C3A G5A U20G G21U G40U, with 1.21; and C42U C45G C46U, with 0.06. Then C3A C13G A26C G27C U34G, with 0.05. Then G17A G21A U28G, with 0.11; and G1U U20G G21U C23U G33U U43A, with 0; and C13G A25C A39U, with 0. With C3G G27C G36C, the self-cleavage came out at 0.19.

C3U A4G G5A: the self-cleavage is 0.07. As to A11C A12C G21U, the self-cleavage came to 0.01. Then G1C G19U C31U, with 0.04; and A4C U9A A11C A26C G27A C31G, with 0.02; and G5C G17A A24U G27C, with 0. For G1A U9C U20G A41U, the self-cleavage came out at 0.11. Consider G2C C13G C37G G44A, for which the self-cleavage was 0.07. Turning to C3A A6U C8G C13A U38A C45A, the self-cleavage amounted to 0.02. Next, C3G G17A G30U: 0.6. Then C10A G19A G35U G40C, with 0.3; and C3G A6G C8U C31U, with 0.02; and A4C G21A A24G G40A, with 0.2. Take C15A C23G G33U G35U: the self-cleavage turned out to be 0.05. Next, C10A U20A G21A U38A A39C C42U: 0.05; C3G A24G A25G: 0.17. Next, G2U C13U C18G G27U: 0.01; U9G C13U G19A G40A: 0.1; G5U C23A G36U C42A: 0.03. With G1U G7A U9G, the self-cleavage amounted to 0.03.

Take G1A A4C G35A U38G G40C: the self-cleavage was found to be 0.03. Next, A6U C15A C23U U28A A39U: 0.55; G2U C10A C23A A24U: 0.01; C18U G29U U38C: 0.68. Turning to C15U G19C U28C G40A C46U, the self-cleavage was 0.08. For the variant G2C A16U U32A A39U U43A, the self-cleavage came to 0. C3A G22C A26G C46U: the self-cleavage worked out at 0.07. Then A11C C13G C37U, with 0.02; and A4U C23G A24C G30A U32C C37U, with 0.02. Then G27U G30U G40C U43A C45G, with 0.03; and G5C A6U G7C, with 0.02; and G29C C31G G36U C45A, with 0.03. In the case of C8G C13A C37A, the self-cleavage stood at 0.16. Then C8U C18G U34A G35C, with 0.02; and G5A G40C C45U, with 0.15; and A4U C10G G19A G40U, with 0.03. Take G1A G7C G27U C42U U43C: the self-cleavage came to 0.55. As for C37U A39U C46U, the self-cleavage was 0. C13A C23G C42U: the self-cleavage was found to be 0.1. Then C8A A11U G30C, with 0.02.

Turning to G5C C18U A26G, the self-cleavage stood at 0.03. Next, G1A G7C G17A U34G C45U: 0.07; G2U G7C C8U: 0.07; A12G G27A C45U: 0.07. For C3U U32C C45G, the self-cleavage came out at 0.08. Take G5C A16C G27A G44A: the self-cleavage came out at 0.03. Then G21C U28G G44C, with 0.53.
